The list shows a part of the results. These are noisy estimates, calculated here from bound and input reads.
Biological target: T1, Pho4 (S. cerevisiae) (UniProt P07270)
T1 sequence: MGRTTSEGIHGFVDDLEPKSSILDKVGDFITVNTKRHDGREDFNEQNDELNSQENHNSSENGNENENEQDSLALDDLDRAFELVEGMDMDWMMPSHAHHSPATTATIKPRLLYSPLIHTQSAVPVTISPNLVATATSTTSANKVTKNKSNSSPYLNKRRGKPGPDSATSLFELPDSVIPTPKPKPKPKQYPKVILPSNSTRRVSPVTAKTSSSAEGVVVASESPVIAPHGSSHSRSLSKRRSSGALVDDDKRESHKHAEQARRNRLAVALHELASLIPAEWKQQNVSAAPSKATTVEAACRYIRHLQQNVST
Assay: relative binding free energy (BET-seq); higher = weaker binding
Settings: reference: library average

Sequence | relative binding free energy [kcal/mol]
CGGTGCACGTGTTTTG | -0.11
GCGGTCACGTGTAGGC | 0.15
AATTGCACGTGTTGGC | 0.14
CAGTTCACGTGCGGGT | 0.16
ATTTTCACGTGCCTGG | 0.28
TATGTCACGTGTAACT | 0.21
TAGAGCACGTGACGGG | -0.04
ATATACACGTGAGAGT | 0.19
CGCGTCACGTGCAGGG | -0.06
CATATCACGTGGAGTG | 0.03
ATTTACACGTGGAGAT | 0.22
TGCGTCACGTGGGAGC | -0.02
TTGCGCACGTGGAAGG | -0.15
TCGAACACGTGTTAGT | 0.12
TATGTCACGTGCATGT | 0.08
CGGTTCACGTGTGGTG | 0.3
CATGTCACGTGGATTT | 0.04
TTTGTCACGTGTCTTG | 0.05
CGTTTCACGTGGGCAG | 0.18
ACTGTCACGTGGGGGC | -0.19
AGGGGCACGTGAGTTA | 0.18
GCAGTCACGTGTGCTG | 0.19
TAAGCCACGTGTTGGG | -0.17
GGTGTCACGTGTGGCG | 0.22
ATTTACACGTGAGGTA | 0.28
TGTGCCACGTGGTTGA | -0.07

Sequence | relative binding free energy [kcal/mol]
GCTTACACGTGTGGTA | 0.23
GTGGTCACGTGGCGAA | 0.02
GTTGCCACGTGATGTT | 0.18
AGCTTCACGTGGAGGT | 0.22
TTGAACACGTGGGGAG | -0.05
TTGTACACGTGGTGTA | 0.04
TACTTCACGTGGGTAA | 0.11
TGGCACACGTGGGGTG | -0.18
TTAACCACGTGATTGT | 0.05
ACAGGCACGTGAGAGG | 0.11
GCTTCCACGTGGTGGG | -0.01
GGGTTCACGTGGTCGC | 0.1
AGTTGCACGTGGGGGG | -0.08
TTCTGCACGTGGGTCG | -0.15
GTGATCACGTGGGGGC | -0.06
CGCGTCACGTGTATTG | 0.03
ACGTTCACGTGAGTTG | 0.28
TCGGTCACGTGTTGTC | 0.12
TTTATCACGTGCTATG | 0
TGTATCACGTGCTGGG | 0.02
TTGTTCACGTGAGGCT | 0.34
ATAGTCACGTGGGTTG | -0.06
TAGTGCACGTGATCAG | 0.04
AGGTACACGTGGAGCT | 0.06
GGGGGCACGTGACGGA | 0.03
GTGTGCACGTGCGTAA | -0.14

Sequence | relative binding free energy [kcal/mol]
CGGGGCACGTGAGGAC | 0.08
GGGGGCACGTGAAATA | 0.36
TTGGGCACGTGGCAGC | -0.17
TTGGCCACGTGACGTG | 0.05
CAGCGCACGTGAGGTG | 0.01
ATGCGCACGTGGGGCG | -0.29
GGCTCCACGTGGTTTT | 0.13
AGTTGCACGTGTCGTT | 0.03
TCATGCACGTGAATGG | 0.19
TTTGACACGTGGCAGT | -0.08
AGTGGCACGTGGGCCT | -0.3
TGGTGCACGTGCTGAA | -0.14
GTCTACACGTGCGGGT | 0.22
TAGTTCACGTGTGGTA | 0.24
TGGTTCACGTGAGACG | 0.48
GTTTTCACGTGACTGG | 0.45
AGGGCCACGTGGAAGG | 0.1
TTCTTCACGTGCAGTT | 0.27
AGTGGCACGTGTGTGC | -0.13
GATCTCACGTGGTGGA | 0.27
CGTATCACGTGTATTT | 0.17
TTGGACACGTGGGAGA | -0.03
TGGTACACGTGAAACG | 0.43
TTGGCCACGTGGCGCG | -0.09
AAGGGCACGTGGGGCT | -0.2
GAGTTCACGTGTACGG | 0.32

Sequence | relative binding free energy [kcal/mol]
GGGAGCACGTGATGGA | 0.07
GAATGCACGTGATTGG | 0.26
TATGGCACGTGGAGTG | -0.05
GCGTGCACGTGCAGGT | 0.1
TAGGGCACGTGGGGAA | -0.31
TGGCTCACGTGCGGTA | 0.08
AATAGCACGTGAGCGT | 0.24
GGCCACACGTGCGGGG | 0.04
TTCGTCACGTGATTTG | 0.17
TTGATCACGTGGGATT | 0.06
GATAGCACGTGTATGG | -0.04
ATTTACACGTGTCGGC | 0.29
ATGTACACGTGGGCTT | 0
GTAGACACGTGGAGGA | -0.08
TCTCTCACGTGGTAGG | 0.27
TAAATCACGTGAGTTT | 0.31
ATATTCACGTGGTGTA | 0.12
TTCAACACGTGGTGGA | 0.08
AGAGGCACGTGAATGT | 0.06
GGCGGCACGTGAGGAG | 0.14
TAGACCACGTGGGTGT | -0.33
GTTTTCACGTGAGGAC | 0.46
TTTAGCACGTGGATTA | 0.12
ATGAGCACGTGGTGAT | -0.03
AGTGACACGTGGGTGC | -0.13
TATAACACGTGTGTTA | -0.07

Sequence | relative binding free energy [kcal/mol]
TAGGGCACGTGCGCGA | -0.29
GGAACCACGTGTGGTG | -0.02
TATCTCACGTGTATGT | 0.09
TATGCCACGTGGATGT | -0.1
GGGGTCACGTGTGCTC | -0.01
TTACACACGTGGTTAT | -0.04
CGTGGCACGTGCTGGT | -0.19
GGCTACACGTGTAGTG | 0
TTTTCCACGTGTTAGA | 0.24
AATGTCACGTGCGTTA | -0.05
TGCGGCACGTGTCGTC | 0.12
GTACGCACGTGATGTA | 0.13
GAGGTCACGTGGAGCG | 0.3
TTGACCACGTGTGGTT | -0.08
TTCGTCACGTGTGCGT | 0.04
CATGGCACGTGAAGTG | 0.19
AATATCACGTGTTTGC | 0.18
AGATCCACGTGCGGGT | 0.06
TTTTGCACGTGAAAAT | 0.26
GGAGTCACGTGGCAGA | 0.13
TGGTGCACGTGAGCTA | 0.12
GATTTCACGTGTGCTG | 0.15
AGCCGCACGTGGGAGT | -0.06
TACGTCACGTGGGGAG | 0.02
GTTGCCACGTGGGGCG | -0.14
GGCGTCACGTGGGTGG | 0.03

Sequence | relative binding free energy [kcal/mol]
TTGCTCACGTGGGTCG | 0.14
ATGATCACGTGGTGTG | 0.12
ATTGGCACGTGAAGAA | 0.16
ATAAGCACGTGGTGGT | -0.22
TAGTCCACGTGATGTG | -0.01
GTTTACACGTGTATAG | 0.06
GTTAGCACGTGGTCGC | -0.12
GTTATCACGTGTTTAT | 0.19
TGAAGCACGTGTTTGT | -0.07
TGGTTCACGTGTTCAT | 0.32
ATAGTCACGTGGGCTT | 0.04
GAGGTCACGTGAGTTT | 0.59
CTTTTCACGTGGTTCG | 0.1
GAAAGCACGTGGTTAA | 0.03
GTATACACGTGGGGCA | -0.18
GTTGACACGTGGTCAG | 0.05
GAAGTCACGTGGAGTA | 0.31
AGGAACACGTGGGTAA | -0.08
GGAGCCACGTGGTTTG | 0
TTGGTCACGTGTTCTA | 0.08
GATGACACGTGGGCGT | 0
GATGACACGTGTGGCG | 0.14
GATATCACGTGGTATG | 0.14
GAATGCACGTGATTGT | 0.26
TTTTCCACGTGGTTAA | 0
GGCATCACGTGTGGAA | 0.21

Sequence | relative binding free energy [kcal/mol]
TTGCTCACGTGGAGGT | 0.14
AGCATCACGTGTGGAG | 0.14
AGACTCACGTGTTGGG | 0.23
ATGGGCACGTGATTGG | 0.04
GCTGTCACGTGCAGTT | 0.18
TTCTGCACGTGATTTA | -0.09
TCTTGCACGTGATTTT | 0.06
GAAAGCACGTGTTGAG | -0.02
GGAGTCACGTGTGAAT | 0.26
TGTATCACGTGTCGAG | 0.26
CTGTACACGTGGTGCT | -0.05
ATGCTCACGTGCGTGT | 0.17
TCGAGCACGTGGTATT | -0.15
TTTTGCACGTGTTGCT | 0.04
TGAGACACGTGAGTAG | 0.31
GGGATCACGTGTTGCG | 0.25
GGGCTCACGTGCAGGT | 0.35
TTTTCCACGTGGTTGT | 0.08
GTGCTCACGTGTATAG | 0.16
CTCAGCACGTGTGGGT | -0.02
AGGATCACGTGGGAAG | -0.06
GGTGGCACGTGATGCG | 0.1
GGTTACACGTGAAGTA | 0.34
ATTTGCACGTGTGCAG | -0.05
GTTTACACGTGAGGGA | 0.39
TAAGTCACGTGGTGAG | 0.02

Sequence | relative binding free energy [kcal/mol]
TTGGGCACGTGACGGT | 0.12
TGTTACACGTGAGATA | 0.22
GGGTACACGTGAGATG | 0.32
TTGATCACGTGTAATG | 0.23
AGTGGCACGTGAGCGA | 0.14
AAGCGCACGTGTGAGT | -0.06
TAATGCACGTGTGTTG | 0
GGTAACACGTGCTGGC | 0.13
TTTAGCACGTGTAAGG | 0.04
ACAGTCACGTGGTAGT | -0.01
CAGTTCACGTGTGTGC | 0.22
TTGCTCACGTGTGTCG | 0.31
GGATGCACGTGCTTGT | -0.06
GCGCGCACGTGGGTGT | -0.18
ATCGGCACGTGGGAGG | -0.11
TGGTGCACGTGTTGAG | 0.05
TGGTACACGTGTTGTA | 0.06
GGGCGCACGTGTTTAA | 0.07
GCATGCACGTGGTATT | -0.04
ATTATCACGTGGGTCC | 0.1
TCTGGCACGTGGGGGC | -0.17
TAGGTCACGTGTCCGT | 0.06
CTTTACACGTGGTTAA | -0.05
GTTTACACGTGACGGG | 0.27
GTATGCACGTGGATGC | 0.06
TTAAACACGTGGTTCT | -0.14

Sequence | relative binding free energy [kcal/mol]
AAATACACGTGGGAGT | -0.11
GTATTCACGTGGACGT | 0.23
TAGGTCACGTGGTATG | 0.03
CGTTTCACGTGTCATG | 0.26
GTATGCACGTGCGAGT | -0.02
CATTGCACGTGTGTGG | 0.1
TTCTGCACGTGGATTG | -0.01
TTGAACACGTGGTGCA | -0.07
TGGCACACGTGTTATT | 0.16
ATTAGCACGTGATTCT | 0.05
TAATTCACGTGTCGAG | 0.18
CAGTGCACGTGTGGGC | -0.11
TGGTGCACGTGGTTCT | -0.13
ACATTCACGTGTTTAT | 0.28
TCCTTCACGTGGTTTT | 0.32
ATTGACACGTGGTATG | -0.17
GATGTCACGTGGCTAA | 0.36
TTCAGCACGTGTATTT | 0.12
AGTAGCACGTGGGTGT | -0.27
ACTAGCACGTGTTGGT | 0
AGTTTCACGTGGTGCC | 0.22
ATGTGCACGTGTTTAT | -0.01

Reference: the BET-seq Pho4 binding data (Le et al. 2018)
